Results from PubChem BioAssay AID1030 (National Center for Advancing Translational Sciences (NCATS), 2008).
In all, about 220,000 compounds went through this assay and about 16,000 (7.3%) were called active. This list was built around the results that the source calls inconclusive (neither active nor inactive); the mix of calls is not that of the screen. Calls come from the whole dose curve; as a rule, active = well fitted inhibition curve with a large enough effect (not every such curve was filed as active); inconclusive = small, poorly fitted or top-dose-only effect, or another doubt; inactive = no such curve, though single readings can be large or run the other way. Where the call is inconclusive, the potency comes from a doubtful curve fit.

Target: Aldehyde dehydrogenase 1A1 (Homo sapiens) (UniProt P00352)
Assay: qHTS Assay for Inhibitors of Aldehyde Dehydrogenase 1 (ALDH1A1);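 for activity, negative = inhibition: plate controls were no enzyme wells and a reference inhibitor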
Settings: Purified ALDH1A1, NADH fluorescence, propionaldehyde substrate; series mostly up to 75.3 µM; activity, negative = inhibition: at the top concentration
Potency is the fitted concentration of half-maximal effect; tags give direction and shape of the fitted curve.

Chain of UniProt P00352 (P00352 whole entry, looked up): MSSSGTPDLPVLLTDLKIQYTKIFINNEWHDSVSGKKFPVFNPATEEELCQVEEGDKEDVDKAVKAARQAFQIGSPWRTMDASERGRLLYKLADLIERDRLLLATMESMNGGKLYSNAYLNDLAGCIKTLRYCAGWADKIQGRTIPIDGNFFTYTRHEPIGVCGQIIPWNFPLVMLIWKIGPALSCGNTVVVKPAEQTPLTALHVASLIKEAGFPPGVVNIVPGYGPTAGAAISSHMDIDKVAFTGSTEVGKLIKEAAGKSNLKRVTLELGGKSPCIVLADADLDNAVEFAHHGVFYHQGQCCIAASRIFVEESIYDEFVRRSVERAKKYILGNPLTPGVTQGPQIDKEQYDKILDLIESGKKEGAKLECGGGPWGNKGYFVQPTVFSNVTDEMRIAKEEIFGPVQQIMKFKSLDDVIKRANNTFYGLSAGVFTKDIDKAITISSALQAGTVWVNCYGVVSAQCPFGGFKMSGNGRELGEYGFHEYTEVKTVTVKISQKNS

Potency, active:
C/C(=N/NC(=O)c1cc(O)c(O)c(O)c1)c1ccc([N+](=O)[O-])cc1 25.1 µM
CCc1ccc2[nH]c(=O)c(C(c3nnnn3CC3CCCO3)N3CCCc4ccccc43)cc2c1 (configuration not stated) 7.94 µM
CCCCN(CCCNC(=O)c1c(C)cc(=O)oc1C)c1ccccc1 22.4 µM
CC(C)N(C(=O)CSc1nn2c(=O)c(C(C)(C)C)nnc2s1)c1ccccc1 22.4 µM
O=C(C1=C(O)/C(=C/c2ccc(O)cc2)CCC1)C(F)(F)F 0.0794 µM
C=C(C)CN=C1SC(C(=O)Nc2sc3c(c2C(=O)OC)CCC3)C(N)=C1C(N)=O (configuration not stated) 25.1 µM
COc1cc([N+](=O)[O-])ccc1-c1ccc(C(=O)Nc2ccc(NC(C)=O)cc2)o1 0.891 µM
Cc1ccc(N(CC(=O)N/N=C/c2cc(C)n(-c3ccccc3C)c2C)S(C)(=O)=O)cc1 25.1 µM
O=C1c2ccccc2C(=O)N1CCCCN(C(=O)c1ccco1)c1ccc(Cl)cc1 7.94 µM
Cc1ccccc1-n1c(C)cc(/C=N/NC(=O)c2ccncc2)c1C 31.6 µM
COc1ccc(CNC(=O)C(c2ccc(C)o2)N(C(=O)c2csnn2)c2ccc(C(C)C)cc2)cc1 (configuration not stated) 2 µM

Potency, inconclusive:
Cc1cc(C)cc(NCC(=O)Nc2c(C)cccc2C)c1 35.5 µM [inhibitor, single point]
CN(C)c1ccc(-c2nnc(-c3cccs3)o2)cc1 31.6 µM [inhibitor, partial curve]
Cc1cc(Cl)c(S(=O)(=O)NC2CCCCC2)cc1OCC(=O)Nc1nncs1 39.8 µM [inhibitor, single point]
CC(=C/c1ccccc1)/C=C1/SC(N2CCOCC2)=NC1=O 39.8 µM [inhibitor, single point]
COCCNC(=O)CCSc1nc(-c2ccc(OC)cc2)cc(C(F)(F)F)n1 35.5 µM [inhibitor, single point]
Cc1nc(COC(=O)c2c(C)nn(-c3ccccc3)c2C)cs1 28.2 µM [inhibitor, single point]
COC(=O)c1sc2ccccc2c1-n1cccc1C(=O)C(=O)Nc1ccc(OC)cc1 25.1 µM [inhibitor, single point]
COc1ccccc1C(=O)Nc1sc2c(c1C(=O)NCc1ccco1)CCCC2 20 µM [inhibitor, partial curve]
Nc1c2c(nc3ccn(Cc4ccccc4)c(=O)c13)CCC2 28.2 µM [inhibitor, partial curve]
Cc1[nH]c(=O)cc2ccccc12 23.8 µM [inhibitor, single point]
N#Cc1ccc2c(c1)nc1ccccn12 20 µM [inhibitor, partial curve]
CCOC(=O)C1CCCc2c1[nH]c1c(C(N)=O)cccc21 (configuration not stated) 25.1 µM [inhibitor, single point]
COc1cccc2c1C(=O)c1ccc3ccccc3c1C2=O 25.1 µM [inhibitor, single point]
Nc1c(C(=O)O)sc2nc(-c3ccccc3)c3c(c12)CCCC3 39.8 µM [inhibitor, single point]
Cc1cccc2nc(-c3ccco3)c(Nc3ccccc3)n12 31.6 µM [inhibitor, partial curve]
N#Cc1nc(-c2ccc(OCc3ccc(Cl)cc3)cc2)oc1NCCCn1ccnc1 22.4 µM [inhibitor, partial curve, poor fit]
CCCCSc1ccc2nc(-c3ccc(C#N)cc3)cn2c1 25.1 µM [inhibitor, single point]
C=CCn1c(=NC(=O)C2COc3ccccc3O2)sc2cccc(OC)c21 (configuration not stated) 35.5 µM [inhibitor, single point]
COc1cccc(/C=C/C(=O)OCC(=O)Nc2cc(C(F)(F)F)ccc2Cl)c1 39.8 µM [inhibitor, single point]
COc1ccc(NC(=O)c2ccccc2NC(=O)NC2CCCCC2)cc1 12.6 µM [inhibitor, partial curve]
CCc1cc2c(=O)c(-c3ccc4c(c3)OCCO4)coc2cc1OS(C)(=O)=O 14.1 µM [inhibitor, partial curve]
CCOC(=O)c1ccc(-c2ccc(CO)o2)cc1 28.2 µM [inhibitor, partial curve]
O=C(CSc1nnc(COc2ccc(Cl)cc2)o1)OC1CCCCC1 39.8 µM [inhibitor, single point]
O=C(Cc1ccccc1)Nc1ccccc1CO 0.794 µM [inhibitor, partial curve, poor fit]
O=c1c2cccc3c2c(nn1-c1ccccc1)-c1ccccc1-3 39.8 µM [inhibitor, single point]
O=C(Nc1ccc2nc3n(c(=O)c2c1)CCCCC3)c1ccccc1Cl 39.8 µM [inhibitor, single point]
CCOC(=O)c1sc(=NC(=O)c2ccc(C)cc2)n(C)c1C 39.8 µM [inhibitor, single point]
CSc1ccccc1NC(=O)CN(C)S(=O)(=O)c1ccc(F)cc1 39.8 µM [inhibitor, single point]
COc1ccc(-c2csc(Cc3nnc4n3CCCCC4)n2)cc1OC 39.8 µM [inhibitor, single point]
COc1ccc2[nH]cc(CCNc3cc(-c4ccc5c(c4)OCO5)ncn3)c2c1 20 µM [inhibitor, partial curve]
O=C(CCSCc1cccc(Cl)c1)NCCc1ccccc1 17.8 µM [inhibitor, single point]
CC(=O)Cc1nsc(NC(=O)c2ccc(-c3ccc(F)cc3)o2)n1 22.4 µM [inhibitor, partial curve]
O=C(/C=C/Nc1ccccc1Oc1ccccc1)c1ccco1 35.5 µM [inhibitor, single point]
Cc1cc(SCC(=O)c2cccs2)nc2ccccc12 44.7 µM [inhibitor, single point]
O=C(Nc1ccc2ccccc2c1)c1cn(-c2ccccc2)nc1-c1cccs1 39.8 µM [inhibitor, single point]
Cc1c(Br)c([N+](=O)[O-])nn1CC(=O)N1CCc2ccccc2C1 39.8 µM [inhibitor, single point]
CCc1nc(SCc2nc3ccccc3[nH]2)c2oc3ccccc3c2n1 31.6 µM [inhibitor, single point]
Cc1cc(-c2ccccc2)[nH]c(=O)c1S(=O)(=O)c1ccccc1 39.8 µM [inhibitor, single point]
COc1ccc(C(=O)N/C(=C\c2ccc3c(c2)OCO3)C(=O)Nc2cccc(C(=O)O)c2)cc1 22.4 µM [inhibitor, partial curve]
Cc1ccc(-n2c(=S)[nH]c3c(oc4ccccc43)c2=O)cc1C 39.8 µM [inhibitor, single point]
O=C(COC(=O)CNC(=O)c1ccco1)Nc1ccc(Cl)cn1 17.8 µM [inhibitor, partial curve]
COc1ccc(C2/C(=C(/O)c3ccccc3)C(=O)C(=O)N2CO)cc1 (configuration not stated) 44.7 µM [inhibitor, single point]

activity, negative = inhibition, inactive:
COC(=O)[C@H](COC(C)(C)C)NC(=O)O[C@H]1C(=O)c2cc(OC)ccc2O[C@@H]1c1ccc(OC)c(Br)c1 -12.2%
O=C(NCc1nnc(SCC(=O)N2CCCc3ccccc32)o1)c1c(F)cccc1Cl -10%
Cc1ccc(Nc2c(-c3ccc(N4CCOCC4)cc3)nc3ncccn23)c(C)c1 0.75%
CC(C)C(c1nnnn1Cc1ccccc1)N1CCN(Cc2ccc3c(c2)OCO3)CC1 (configuration not stated) -13.4%
Cc1cc(C)nc(SCc2ccc(C(=O)NNC(=O)Nc3cccc(Cl)c3)cc2)n1 -7.14%
COc1ccc(CCNC(=O)CSc2ncnc3c2oc2ccccc23)cc1OC -10.9%
S=C(NCCN1CCOCC1)Nc1cccc2ccccc12 -7.02%
C=CCn1c(SCC(N)=O)nnc1-c1ccccc1O -9.4%
COc1cc(NC(=S)N2CCN(Cc3ccccc3)CC2)cc(OC)c1 -2.4%
O=C1NCC(O)=C1C=Nc1ccccc1O 2.31%
NC(=O)C1CCN(c2nc(C3CC3)nc3c2nnn3Cc2ccccc2Cl)CC1 -13.1%
COc1ccc(Cl)cc1NC(=O)COC(=O)CNC(=O)c1ccc([N+](=O)[O-])c(C)c1 8.95%
CCCCCOc1ccc(C2C(C(C)=O)=C(C)Nc3ncnn32)cc1OC (configuration not stated) 5.51%
O=C(CCc1ccccc1)N1CCN(c2ccc(Cl)cc2)CC1 4.4%
CCc1cc2c(nc1CC)CCN(CC/C(C)=N/O[C@@H](C)c1cn([C@@H]3COC[C@@H]3O)nn1)C2 0.114% [at 13.5 µM]
COc1ccc(C(c2nnnn2CC2CCCO2)N2CCC(C(N)=O)CC2)cc1 (configuration not stated) 1.32%
CCCC(=O)N1CCN(c2ccc(NC(=O)c3sc4ccccc4c3Cl)cc2)CC1 3.45%
Cc1cc(C(=O)CSc2ccc(Cl)cc2)cc(C)c1OC(=S)N(C)C 8.27%
CCCN(CCC)CCNC(=O)C1CC(=O)N(c2ccc(OC)cc2)C1c1ccc(OC)cc1 (configuration not stated) -0.504%
